Measurements: PubChem BioAssay AID1745845 (National Center for Advancing Translational Sciences (NCATS), 2022)
The campaign covered roughly 360,000 compounds. About 2,600 (0.72%) were called active. The shares of active, inactive and inconclusive entries below differ from those in the screen. Calls come from the whole dose curve; as a rule, active = well fitted inhibition curve with a large enough effect; inconclusive = small, poorly fitted or top-dose-only effect; inactive = no such curve, though single readings can be large or run the other way. Potencies of inconclusive entries are doubtful fits and often do not repeat.

Assay: Primary qHTS for Inhibitors of ATXN expression; note: nearly all actives have a fitted effect of over 55% in size
Settings: HEK-293 ATXN2-luciferase reporter, luminescence, 24 h; activity change, negative = inhibition: at 57 µM (top of the series)
In short: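 ATXN2-luciferase reporter cells (luciferase flanked by upstream and downstream ATXN2 gene portions) were treated 24 h at 37 °C with compounds at up to 57 uM. SteadyGlo luminescence gave expression; GF-AFC fluorescence gave viability.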
% is set by controls: 0 for no effect and ±100 for the full control effect; potency is the fitted concentration of half-maximal effect; tags give direction and shape of the fitted curve.

Question: For `COc1ccc(OC)c(CCNC(=O)c2cc3c(=O)n(C)c4ccccc4c3n2C)c1`, which “activity change, negative = inhibition” value is on record?
Answer: Its value is inactive: -7.41%.

Question: With `CCCCNC(=O)c1cc(-c2ccc(OC)cc2)on1` as the molecule, how does the “activity change, negative = inhibition” value read?
Answer: Its value is inactive: 14.8%.

Question: With `Cc1ccc(-n2nc3c(=O)n(C(C)C(=O)NCc4ccc(Cl)cc4)nc(C)c3c2C)cc1` (stereo not given) as the molecule, how does the “activity change, negative = inhibition” value read?
Answer: Its value is inactive: -37.8%.

Question: With `CCN(CC)C(=O)c1cccc(-c2csc(C(C)(O)c3cccc(OC)c3)n2)c1` (stereo not given) as the molecule, how does the Potency read?
Answer: The Potency was inconclusive: 25.1 µM [inhibitor, single point].

Question: Which Potency does the source give for `Cc1ccc(NC(=O)CSc2nc(-c3ccco3)cc(C(F)(F)F)n2)cc1C` here?
Answer: The Potency was “inactive”.

Question: With `Cc1ccc(CNCc2cc3c(C(C)(C)C)nn(-c4ccccc4)c3[nH]c2=O)cc1` as the molecule, how does the Potency read?
Answer: The Potency was inconclusive: 39.8 µM [inhibitor, single point].

Question: Which Potency does the source give for `C/C(CCc1oc2ccccc2c1-c1ccc(C)o1)=N/O` here?
Answer: Its Potency is inconclusive: 39.8 µM [inhibitor, single point].

Question: For `CC(C)N=C1NN=C(c2cccs2)C(CC(=O)O)S1` (stereo not given), which Potency is on record?
Answer: Its Potency is inconclusive: 2.82 µM [inhibitor, partial curve, poor fit].

Question: With `COc1cc(O)c2c(=O)c3c(O)ccc(O)c3oc2c1` as the molecule, how does the Potency read?
Answer: The Potency was inconclusive: 28.2 µM [inhibitor, partial curve, poor fit].

Question: For `FC(F)(F)c1cc(CCN2CCNC[C@H]2Cc2cccc3ccccc23)cc(C(F)(F)F)c1`, which Potency is on record?
Answer: Its Potency is inconclusive: 35.5 µM [inhibitor, single point].

Question: With `CCC1=C(OC(=O)N(CC)CC)N2C(=O)OC(=NCCc3c[nH]c4ccccc34)[C@]2(Cc2ccccc2)[C@H]2C1=CC[C@H]1C(=O)N(C)C(=O)[C@H]12` as the molecule, how does the Potency read?
Answer: The Potency was inconclusive: 28.2 µM [inhibitor, single point].

Question: With `COC(=O)Nc1nc2ccc(S(=O)c3ccccc3)cc2[nH]1` (stereo not given) as the molecule, how does the Potency read?
Answer: The Potency was “inactive”.

Question: Which Potency does the source give for `O=C(Nc1ncc(SCCN2CCCC2)s1)[C@]1(c2ccc(S(=O)(=O)C3CC3)cc2)C[C@@H]1C1CCCCC1` here?
Answer: Its Potency is active: 27.3 µM.

Question: For `CC1=Nc2ccccc2N=C(NC(=O)c2ccccc2)C1c1ccc(Cl)cc1` (stereo not given), which Potency is on record?
Answer: The Potency was inconclusive: 33.6 µM [inhibitor, single point].

Question: With `Cc1ccc2nc(-c3ccncc3)cc(C(=O)Nc3ccc(F)cc3C)c2c1` as the molecule, how does the Potency read?
Answer: The Potency was inconclusive: 39.8 µM [inhibitor, partial curve, poor fit].

Question: Which Potency does the source give for `CCCCN(C(=O)/C=C/c1ccc(OCC(C)C)c(OCC)c1)c1c(N)n(CCC)c(=O)[nH]c1=O` here?
Answer: The Potency was inconclusive: 31.6 µM [inhibitor, partial curve, poor fit].

Question: Which Potency does the source give for `O=C(Nc1nnc(-c2ccccc2)o1)c1cc(-c2cccs2)nc2ccccc12` here?
Answer: The Potency was inconclusive: 35.5 µM [inhibitor, single point].

Question: With `CN(C)c1cc(NC(=O)CNC(C)(C)CC(C)(C)C)c2ccccc2n1` as the molecule, how does the “activity change, negative = inhibition” value read?
Answer: Its value is inactive: -30.3%.

Question: With `Cc1cccc(C(=O)Nc2ccc(S(=O)(=O)N3CCCCC3c3cccnc3)cc2)c1` (stereo not given) as the molecule, how does the Potency read?
Answer: Its Potency is inconclusive: 39.8 µM [inhibitor, single point].

Question: Which Potency does the source give for `COc1ccc(-n2nc(C(=O)NCC(=O)Nc3ccccn3)c3ccccc3c2=O)cc1Cl` here?
Answer: Its Potency is inconclusive: 22.4 µM [inhibitor, partial curve, poor fit].

Question: For `O=C(NCc1ccccc1)C1=C[C@@H](c2ccc(C(F)(F)F)cc2)C[C@@H](OCCCCO)O1`, which Potency is on record?
Answer: The Potency was inconclusive: 39.8 µM [inhibitor, partial curve, poor fit].

Question: With `CCc1cc2cccc(C)c2nc1SCC(=O)N1CCN(C(=O)c2ccco2)CC1` as the molecule, how does the Potency read?
Answer: Its Potency is inconclusive: 25.1 µM [inhibitor, partial curve, poor fit].

Question: With `COc1cccc(CN(C)C(=O)c2cccc(S(=O)(=O)N3CCN(c4ccc(F)cc4)CC3)c2)c1OC` as the molecule, how does the Potency read?
Answer: The Potency was inconclusive: 15.8 µM [inhibitor, partial curve].

Question: Which Potency does the source give for `COc1cc(N2Cc3ccccc3C2)ccc1C=O` here?
Answer: The Potency was inconclusive: 2 µM [inhibitor, partial curve, poor fit].

Question: With `O=C1CC(c2ccc(F)cc2)CC2=C1C=Nc1ccccc1N2` (stereo not given) as the molecule, how does the “activity change, negative = inhibition” value read?
Answer: The value was inactive: -17.8%.

Question: Which Potency does the source give for `O=C(NOC[C@H](O)CO)c1ccc(F)c(F)c1Nc1ccc(I)cc1F` here?
Answer: The Potency was inconclusive: 8.63 µM [inhibitor, full curve].

Question: Which Potency does the source give for `CCCn1ccc2c(OCC(=O)Nc3ccc(OC)c(OC)c3)cccc2c1=O` here?
Answer: Its Potency is inconclusive: 35.5 µM [inhibitor, single point].

Question: With `COc1ccc2c(Sc3ccccc3)c(C(=O)NCc3cc(Br)ccc3OC)[nH]c2c1` as the molecule, how does the “activity change, negative = inhibition” value read?
Answer: The value was inactive: 13.2%.

Question: With `CSc1nc2ccc(S(=O)(=O)N3CCc4ccccc43)cc2s1` as the molecule, how does the Potency read?
Answer: The Potency was inconclusive: 35.5 µM [inhibitor, single point].

Question: Which Potency does the source give for `COc1ccc(NC(=O)COc2ccccc2Cl)cc1S(=O)(=O)N1CCCCC1` here?
Answer: Its Potency is inconclusive: 14.1 µM [inhibitor, partial curve, poor fit].

Question: Which Potency does the source give for `Cc1ccc(SC2=C(Sc3ccc(C)cc3)C(=O)c3ccccc3C2=O)cc1` here?
Answer: The Potency was inconclusive: 6.31 µM [inhibitor, single point].

Question: For `COc1ccccc1N1CCN(C(=O)c2ccc3c(c2)CCN3S(=O)(=O)c2ccccc2)CC1`, which Potency is on record?
Answer: The Potency was inconclusive: 28.2 µM [inhibitor, single point].

Question: Which “activity change, negative = inhibition” value does the source give for `COc1ccc(C#Cc2ccc3c(c2)O[C@@H](CN(C)C(=O)Nc2cccc(OC)c2)[C@H](C)CN([C@@H](C)CO)S3(=O)=O)cc1` here?
Answer: Its value is inactive: 6.23%.

Question: Which Potency does the source give for `Cc1cccc(C(=O)Nc2ccc(C(=O)/C=C/c3cccnc3)cc2)c1` here?
Answer: The Potency was inconclusive: 28.2 µM [inhibitor, single point].

Question: Which Potency does the source give for `Cc1ccc2nc(-c3c[nH]c4ccccc34)c(Nc3ccc(F)cc3)n2c1` here?
Answer: Its Potency is inconclusive: 39.8 µM [inhibitor, single point].

Question: For `COc1ccc2c(c1)c(=O)c(C(=O)c1ccc(Cl)cc1)cn2CC(=O)Nc1ccc2c(c1)OCCO2`, which Potency is on record?
Answer: The Potency was inconclusive: 3.16 µM [inhibitor, single point].

Question: With `CC(=O)Nc1ccc(-c2ccnc3c2CC(C)(C(=O)Nc2ccc(Cl)cc2)O3)cc1` (stereo not given) as the molecule, how does the Potency read?
Answer: The Potency was inconclusive: 28.2 µM [inhibitor, single point].

Question: For `CC(C)(C)C(=O)Nc1ccc(Cc2ccncc2)cc1`, which “activity change, negative = inhibition” value is on record?
Answer: The value was inactive: 2.24%.

Question: Which “activity change, negative = inhibition” value does the source give for `N#CC(=Cc1ccc(-c2ccccc2)cc1)C(=O)c1ccccc1` here?
Answer: The value was inactive: 9.23%.

Question: Which “activity change, negative = inhibition” value does the source give for `C/C=C/c1ccc(OCCOc2cccc3cccnc23)c(OC)c1` here?
Answer: The value was inactive: 27.3%.
